{"source": "the supplement of paper PMC4967469", "note": "IC50 is the fitted dose that halves viability relative to control wells, and lower means more sensitive; fits outside the tested doses are given as limits. AUC sums up the same curve from the lowest dose to the 256-fold higher top dose; the more sensitive the line, the further below 1. The top dose, if marked as inferred, is not printed in the source and was worked back from the curve model.", "data": [{"compound": "CCn1cc(-c2ccnc3[nH]c(-c4cccc(CN(C)C)c4)cc23)c(-c2ccc(NC(=O)N(C)C)cc2)n1 [GSK1070916]", "test": "Viability of human cancer cell lines after 72 h of drug (GDSC screen)", "settings": "top dose inferred", "procedure": "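Human cancer cell lines in 384-well plates, medium with 10% serum, drug for 72 h over a 256-fold dose range (nine 2-fold or five 4-fold steps up to the top dose). Adherent lines were fixed and stained with the nucleic acid dye Syto60, suspension lines read with resazurin; signal relative to control wells, capped at 0 and 100%. One two-parameter sigmoid per drug and line, fitted in a mixed model over all curves with the slope shared within a line.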", "units": {"IC50": "µM"}, "values": [{"cell line": "SCC-9 (head and neck, adherent, top dose 2.56 µM)", "AUC": 0.847, "IC50": "> 2.56"}, {"cell line": "SCC-15 (head and neck, adherent, top dose 2.56 µM)", "AUC": 0.941, "IC50": "> 2.56"}, {"cell line": "SCC-25 (head and neck, adherent, top dose 2.56 µM)", "AUC": 0.881, "IC50": "> 2.56"}, {"cell line": "SCH (stomach, adherent, top dose 2.56 µM)", "AUC": 0.984, "IC50": "> 2.56"}, {"cell line": "SF126 (glioma, adherent, top dose 2.56 µM)", "AUC": 0.97, "IC50": "> 2.56"}, {"cell line": "SF268 (glioma, adherent, top dose 2.56 µM)", "AUC": 0.884, "IC50": "> 2.56"}, {"cell line": "SF295 (glioma, adherent, top dose 2.56 µM)", "AUC": 0.928, "IC50": "> 2.56"}, {"cell line": "SF539 (glioma, adherent, top dose 2.56 µM)", "AUC": 0.945, "IC50": "> 2.56"}, {"cell line": "SH-4 (melanoma, adherent, top dose 2.56 µM)", "AUC": 0.909, "IC50": "> 2.56"}, {"cell line": "SHP-77 (small cell lung carcinoma, semi-adherent, top dose 2.56 µM)", "AUC": 0.962, "IC50": "> 2.56"}, {"cell line": "SIG-M5 (acute myeloid leukaemia, suspension, top dose 2.56 µM)", "AUC": 0.157, "IC50": 0.0215}, {"cell line": "SIMA (neuroblastoma, adherent, top dose 2.56 µM)", "AUC": 0.868, "IC50": "> 2.56"}, {"cell line": "SISO (cervix, adherent, top dose 2.56 µM)", "AUC": 0.932, "IC50": "> 2.56"}, {"cell line": "SJRH30 (rhabdomyosarcoma, adherent, top dose 2.56 µM)", "AUC": 0.83, "IC50": 1.68}, {"cell line": "SJSA-1 (bone, adherent, top dose 2.56 µM)", "AUC": 0.951, "IC50": "> 2.56"}, {"cell line": "SK-CO-1 (large intestine, adherent, top dose 2.56 µM)", "AUC": 0.987, "IC50": "> 2.56"}, {"cell line": "SK-ES-1 (Ewing sarcoma, semi-adherent, top dose 2.56 µM)", "AUC": 0.29, "IC50": 0.0391}, {"cell line": "SK-GT-4 (oesophagus, adherent, top dose 2.56 µM)", "AUC": 0.953, "IC50": "> 2.56"}, {"cell line": "SK-HEP-1 (liver, adherent, top dose 2.56 µM)", "AUC": 0.989, "IC50": "> 2.56"}, {"cell line": "SK-LMS-1 (soft tissue, adherent, top dose 2.56 µM)", "AUC": 0.903, "IC50": "> 2.56"}, {"cell line": "SK-LU-1 (lung adenocarcinoma, adherent, top dose 2.56 µM)", "AUC": 0.949, "IC50": "> 2.56"}, {"cell line": "SK-MEL-1 (melanoma, suspension, top dose 2.56 µM)", "AUC": 0.993, "IC50": "> 2.56"}, {"cell line": "SK-MEL-2 (melanoma, adherent, top dose 2.56 µM)", "AUC": 0.981, "IC50": "> 2.56"}, {"cell line": "SK-MEL-3 (melanoma, adherent, top dose 2.56 µM)", "AUC": 0.968, "IC50": "> 2.56"}, {"cell line": "SK-MEL-5 (melanoma, adherent, top dose 2.56 µM)", "AUC": 0.981, "IC50": "> 2.56"}, {"cell line": "SK-MEL-24 (melanoma, adherent, top dose 2.56 µM)", "AUC": 0.977, "IC50": "> 2.56"}, {"cell line": "SK-MEL-28 (melanoma, adherent, top dose 2.56 µM)", "AUC": 0.989, "IC50": "> 2.56"}, {"cell line": "SK-MEL-30 (melanoma, adherent, top dose 2.56 µM)", "AUC": 0.946, "IC50": "> 2.56"}, {"cell line": "SK-MES-1 (lung squamous cell carcinoma, adherent, top dose 2.56 µM)", "AUC": 0.953, "IC50": "> 2.56"}, {"cell line": "SK-MG-1 (glioma, adherent, top dose 2.56 µM)", "AUC": 0.972, "IC50": "> 2.56"}, {"cell line": "SK-MM-2 (myeloma, suspension, top dose 2.56 µM)", "AUC": 0.867, "IC50": 2.47}, {"cell line": "SK-N-AS (neuroblastoma, adherent, top dose 2.56 µM)", "AUC": 0.85, "IC50": 2.41}, {"cell line": "SK-N-DZ (neuroblastoma, adherent, top dose 2.56 µM)", "AUC": 0.979, "IC50": "> 2.56"}, {"cell line": "SK-N-FI (neuroblastoma, adherent, top dose 2.56 µM)", "AUC": 0.803, "IC50": 1.26}, {"cell line": "SK-N-SH (neuroblastoma, adherent, top dose 2.56 µM)", "AUC": 0.913, "IC50": "> 2.56"}, {"cell line": "SK-PN-DW (Ewing sarcoma, adherent, top dose 2.56 µM)", "AUC": 0.549, "IC50": 0.219}, {"cell line": "SK-UT-1 (soft tissue, adherent, top dose 2.56 µM)", "AUC": 0.987, "IC50": "> 2.56"}, {"cell line": "SKG-IIIa (cervix, adherent, top dose 2.56 µM)", "AUC": 0.973, "IC50": "> 2.56"}, {"cell line": "SKN (uterus, adherent, top dose 2.56 µM)", "AUC": 0.941, "IC50": "> 2.56"}, {"cell line": "SKN-3 (head and neck, adherent, top dose 2.56 µM)", "AUC": 0.962, "IC50": "> 2.56"}]}]}
